From PubChem BioAssay AID540317 (National Center for Advancing Translational Sciences (NCATS), 2011)
Among all 390,000 compounds or so, about 2,200 (0.56%) were called active. Inconclusive means that the source gave no clear call. Such entries were picked first, then a sample of the others. Calls follow the shape of the dose curve; as a rule, active = well fitted inhibition curve with a large enough effect; inconclusive = small, poorly fitted or top-dose-only effect; inactive = no such curve, though single readings can be large or run the other way. Potencies of inconclusive entries are doubtful fits and often do not repeat.

What follows are compounds tested against Chromobox protein homolog 1 (Homo sapiens) (UniProt P83916) (assay: HTS for Inhibitors of HP1-beta Chromodomain Interactions with Methylated Histone Tails). Conditions: AlphaScreen HP1-beta / biotin-H3K9me3 peptide binding; series mostly up to 114 µM; activity change, negative = inhibition: at the top concentration.
Chain of UniProt P83916 (P83916 whole entry, looked up): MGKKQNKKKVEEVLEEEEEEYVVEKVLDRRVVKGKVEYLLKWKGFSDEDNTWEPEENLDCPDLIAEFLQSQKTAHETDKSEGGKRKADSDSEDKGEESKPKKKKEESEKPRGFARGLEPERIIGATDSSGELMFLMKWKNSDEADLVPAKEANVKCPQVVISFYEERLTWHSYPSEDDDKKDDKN
Outline: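 AlphaScreen: HP1-beta (50 nM) preformed 30 min with biotin-H3(1-18)K9me3 peptide (50 nM) in PBS pH 7.4, 0.01% Tween-20. Compound added for 30 min at RT, then streptavidin donor/nickel chelate acceptor beads (10 ug/mL) for 30 min.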
Also: nearly all actives have a fitted effect of over 70% in size.
Potency is read from the fitted curve at half-maximal effect; tags tell the direction and shape of the fitted curve.

SMILES	Potency	activity change, negative = inhibition
Oc1ccc(-c2csc(Nc3ncccn3)n2)cc1O	active: 70.8 µM	
OCCN(Cc1ccccc1)Cc1cccc(Cl)c1Cl	inconclusive: 70.8 µM [inhibitor, partial curve]	
CCN1CCN(CCOc2ccc(Br)cc2C)CC1	inconclusive: 14.1 µM [inhibitor, partial curve, poor fit]	
C=CCN(c1ccccc1)S(=O)(=O)c1cccc(C(=O)NNC(=O)c2ccccc2O)c1		inactive: 3.83%
Cc1ccc(-c2nc(C#N)c(NCCN3CCCCC3)o2)cc1	inconclusive: 50.1 µM [inhibitor, partial curve, poor fit]	
C/C(=N/NC(=O)Cc1cccs1)c1ccco1	inconclusive: 39.8 µM [inhibitor, single point]	
CN(CCOc1ccccc1)CC(O)COCc1ccccc1F (stereo not drawn)	inconclusive: 50.1 µM [inhibitor, single point]	
Cc1c(Cl)cccc1NC(=S)NCc1cccn1C	inconclusive: 39.8 µM [inhibitor, single point]	
O=C(O)CN1C(=O)/C(=C\C(Br)=C\c2ccccc2)SC1=S	inconclusive: 28.2 µM [inhibitor, partial curve]	
Cc1cc(C)c(S(=O)(=O)N2CCCC(C(=O)NC3CCCC3)C2)c(C)c1 (stereo not drawn)		inactive: 36.4%
C#CCOCCOCCOCCNc1nc(N2CCN(C(=O)CCCCCCCCCCNC(=O)[C@H]([C@@H](C)CC)n3cc(CCCCN=C(N)N)nn3)CC2)nc(N2CCN(C(=O)CCCCCCCCCCNC(=O)[C@H](CO)n3cc(CCCSC)nn3)CC2)n1	inconclusive: 56.2 µM [inhibitor, partial curve, poor fit]	
CCC(C)C(=O)Nc1nc(-c2ccc3c(c2)NC(=O)CO3)cs1 (stereo not drawn)	inconclusive: 79.4 µM [inhibitor, single point]	
CCN(CC)C(=O)[C@H]1C[C@H](CC(=O)NCc2cccc(C(F)(F)F)c2)C(=O)N2CCc3c([nH]c4cc(-c5ccco5)ccc34)[C@]12C	inconclusive: 35.5 µM [inhibitor, partial curve, poor fit]	
Clc1ccccc1OCCN1CCC(Cc2ccccc2)CC1	inconclusive: 14.1 µM [inhibitor, full curve]	
CCN(CC)CCOc1cc2c(nn1)Oc1ccccc1N2C		inactive: 7.04%
CCOC(=O)c1cccc(NC(=O)CCCn2nc(C)c3c(C)n(-c4ccccc4)nc3c2=O)c1		inactive: 7.38%
COc1ccccc1NC(=O)N1CCN(Cc2ccc3c(c2)OCO3)CC1	inconclusive: 56.2 µM [inhibitor, partial curve, poor fit]	
CCn1c(=O)n(CC)c2cc(N3CCCC3)c(NC(=O)c3ccccc3F)cc21	inconclusive: 25.1 µM [inhibitor, single point]	
Cc1ccc(CNC(=O)CSc2nc(C)cc(C)c2C#N)cc1		inactive: 69.3%
CN(C)c1ccc(-n2cc3c(=O)n(C)c(=O)n(C)c3c2)cc1	inconclusive: 56.2 µM [inhibitor, single point]	
Cc1ccc(NC(=O)CCOc2ccccc2)cc1	inactive	
CCn1c(/C=C/c2ccc(O)c(O)c2)nc2ccccc2c1=O	inconclusive: 44.7 µM [inhibitor, partial curve]	

SMILES	Potency	activity change, negative = inhibition
COc1cccc(-c2nc(S(=O)(=O)c3ccccc3)c(N3CCCCC3)o2)c1	inconclusive: 15.8 µM [inhibitor, partial curve]	
O=C(NCC1(c2ccccc2)CCOCC1)c1ccc(Br)o1		inactive: 36%
CC(=O)OCC1=C(C(=O)O)N2C(=O)[C@@H](NC(=O)CSc3ccncc3)[C@H]2SC1	inconclusive: 79.4 µM [inhibitor, single point]	
CC1CC1C(=O)OCC(=O)Nc1ccc(N=Nc2ccccc2)cc1 (stereo not drawn)	inconclusive: 20 µM [inhibitor, full curve]	
Cc1ccc2c(=O)cc(C(=O)Nc3sc4c(c3C(=O)NCc3ccco3)CCC4)oc2c1		inactive: 22%
O=[N+]([O-])c1ccccc1CN1CCN(Cc2c[nH]c3ccccc23)CC1	inconclusive: 17.8 µM [inhibitor, full curve]	
OC(C#CCN1CCCC1)(c1ccccc1)c1cccnc1 (stereo not drawn)		inactive: 3.98%
Cc1c(Cl)cccc1NC(=O)CCCn1nc(C)c2sc3ccccc3c2c1=O		inactive: 43.3%
CN(C)S(=O)(=O)c1cccc(-c2csc(=Nc3ccccc3)n2CCCN2CCOCC2)c1	inconclusive: 25.1 µM [inhibitor, full curve]	
Cc1cc(C)nc(SCC(=O)N/N=C/c2cc(C)n(-c3ccccc3C)c2C)n1	inconclusive: 79.4 µM [inhibitor, partial curve]	
O=C1C(O)=C(O)C(=O)c2ccccc21	inconclusive: 25.1 µM [inhibitor, full curve]	
Cc1ccc(/C=C/C(=O)Nc2ccccc2C(N)=O)cc1		inactive: 31.2%
CCCCCN1C(=O)/C(=C/c2c(N3CCc4ccccc4C3)nc3ccccn3c2=O)SC1=S	inconclusive: 12.6 µM [inhibitor, partial curve]	
CC[n+]1ccc(/C=C/c2ccc(N(C)C)cc2)c2ccccc21	active: 17.8 µM	
CCc1ccc(CNc2ccc3c(c2)ncn3CC)cc1	inconclusive: 56.2 µM [inhibitor, single point]	
Cc1ccc(NCCC(=O)c2cccc([N+](=O)[O-])c2)cc1	inconclusive: 44.7 µM [inhibitor, partial curve, poor fit]	
O=C(C=P(c1ccccc1)(c1ccccc1)c1ccccc1)c1ccccc1-c1ccccc1C(=O)C=P(c1ccccc1)(c1ccccc1)c1ccccc1	inconclusive: 28.2 µM [inhibitor, single point]	
CCn1nc(-c2ccccc2)c2nc3ccccc3nc21		inactive: 137%
Cc1ccc(/C=N/NC(=O)c2ccccc2OCc2cccc(Br)c2)o1	inconclusive: 50.1 µM [inhibitor, partial curve]	
CC(C)c1ccccc1NC(=O)CNCCOc1ccccc1F	inconclusive: 39.8 µM [inhibitor, partial curve, poor fit]	
CCOCCCNCC(=O)Nc1ccccc1N1CCOCC1	inconclusive: 56.2 µM [inhibitor, partial curve, poor fit]	
